# In the supplement of paper PMC3334620:
# The full ranking holds about 33,000 sequences; the median of “E-score (-0.5 to 0.5)” is about -0.013, and the highest 2% start at about 0.3. Some of the results follow.
# Target: T1, Msn1 (UniProt P22148)
# T1 sequence: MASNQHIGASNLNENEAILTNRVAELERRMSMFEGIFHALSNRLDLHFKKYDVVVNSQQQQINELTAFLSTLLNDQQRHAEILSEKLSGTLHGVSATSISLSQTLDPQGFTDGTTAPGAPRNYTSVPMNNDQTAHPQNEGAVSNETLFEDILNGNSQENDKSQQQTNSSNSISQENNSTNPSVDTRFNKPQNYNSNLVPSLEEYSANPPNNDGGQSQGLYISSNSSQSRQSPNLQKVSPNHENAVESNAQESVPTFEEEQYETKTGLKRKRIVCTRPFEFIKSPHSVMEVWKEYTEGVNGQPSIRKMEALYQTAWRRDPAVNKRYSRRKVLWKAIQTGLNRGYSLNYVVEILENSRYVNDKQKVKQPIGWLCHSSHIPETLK
# Test: PBM E-score (8-mer binding enrichment) (E-score (-0.5 to 0.5)); higher = stronger / more preferred TF binding; most listed sequences are background and not binding sites
# Conditions: protein concentration: 200 nM; construct: GST-full length
# Method in brief: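 Yeast transcription factors carrying a GST tag, as full-length proteins or DNA-binding domains, were produced by PURExpress in vitro transcription/translation. About 100-200 nM protein was applied to universal all-10-mer Agilent arrays, double-stranded by primer extension on fresh or once-stripped slides. Bound protein was detected with fluorescent anti-GST, and scans were normalised with masliner. The Universal PBM Analysis Suite gave each ungapped eight-base word, pooled with its reverse complement, an E-score, a modified Wilcoxon-Mann-Whitney statistic.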
row,Sequence,PBM E-score
1,AGTGCAAA,0.186
2,ACCCGTCA,-0.235
3,AAATACAC,0.0164
4,CAACTGCA,0.0518
5,CGGTGAAC,0.0446
6,ACGTCACA,0.109
7,CACGTCTG,0.213
8,CAGCTAGG,-0.135
9,CGATATAG,0.0828
10,GCGGAACA,-0.0512
11,GGGCGACC,-0.306
12,AGGGTTAG,-0.279
13,CGGACTCC,-0.0227
14,GTCGTCCA,0.11
15,ACATATGA,0.311
16,AAGACCGG,0.0652
17,CGATAAAA,0.243
18,ACCCTTAC,-0.0541
19,CCTCAGGC,-0.325
20,AACCTTGC,-0.0732
21,CTTTCAAC,0.0513
22,CATGCTCC,-0.204

row,Sequence,PBM E-score
1,AGTGCGGG,0.0108
2,AGTACTAG,0.266
3,CGACCAAG,-0.114
4,TGGAAAAA,0.0968
5,AGAACAGA,0.0277
6,CTTTTGAC,0.0513
7,GAGAATCA,-0.0362
8,TATCCGCA,0.157
9,GATGTCAA,0.0785
10,ATTCCAGA,0.0673
11,CATGGGGA,-0.00533
12,GAAGTGGC,-0.127
13,CCTACGGA,-0.257
14,GCCGTTTA,0.0426
15,CGTTTGTA,0.189
16,AGGCGCTG,0.00798
17,ATGTTCAC,0.129
18,CCGACATC,0.0379
19,CTCTTCAG,0.136
20,CGTTATTA,0.0658
21,ACAAGGAC,0.358
22,CTCGTCTC,-0.0387

row,Sequence,PBM E-score
1,AGACCTCC,-0.313
2,CAAGCATC,0.0204
3,ATCTGGTA,0.0476
4,GTAAGTTA,-0.0452
5,ACGTACGC,-0.158
6,ATGCATGG,-0.049
7,TATATATA,0.209
8,AGGGAATA,-0.0115
9,GTTCTTGA,-0.0866
10,GCGTCGAC,0.102
11,CATCCATC,-0.247
12,AATCCTGA,0.15
13,CATGTTCA,-0.0172
14,CCCTTACA,0.11
15,CCGAGTGC,0.00444
16,CACGAATC,-0.0434
17,CGTATACA,-0.0227
18,ATCGTTCG,0.0395
19,GAGCCCTA,-0.209
20,ATTAGTAA,0.141
21,CTATTCCC,-0.111
22,ATTGGGAA,0.0707

row,Sequence,PBM E-score
1,GACGTTCA,0.0721
2,GCGGCCCA,-0.184
3,TGCTTTAA,0.151
4,CTACATTC,-0.121
5,GGAAAACC,-0.157
6,GCCCGTCA,-0.234
7,CTGGAAAC,0.0093
8,GCTACACA,-0.169
9,CAGCGCGC,-0.00784
10,AACGACTC,-0.193
11,ACCGGCAG,-0.195
12,CACTTCTG,-0.0201
13,GCTACGAC,0.0207
14,AGCTGCTA,-0.118
15,CACTAATC,0.0285
16,CATTTTTA,0.109
17,TAGAGCCA,-0.192
18,CATGAGTC,0.0695
19,AATGAATC,0.0813
20,AAACAGCT,0.0295
